From article PMC4336329 (PLoS ONE, 2015)
Hit rate of the full screen: of about 310,000 compounds, about 2,200 (0.71%) showed an effect of 50% or more. The effect is printed as a negative number. The list shows a part of the results.

molecular target: human ether-à-go-go-related gene (hERG) potassium channel (human, UniProt Q12809); experiment: primary screen, population patch clamp on CHO cells stably expressing hERG
Sequence (Q12809 whole entry, looked up): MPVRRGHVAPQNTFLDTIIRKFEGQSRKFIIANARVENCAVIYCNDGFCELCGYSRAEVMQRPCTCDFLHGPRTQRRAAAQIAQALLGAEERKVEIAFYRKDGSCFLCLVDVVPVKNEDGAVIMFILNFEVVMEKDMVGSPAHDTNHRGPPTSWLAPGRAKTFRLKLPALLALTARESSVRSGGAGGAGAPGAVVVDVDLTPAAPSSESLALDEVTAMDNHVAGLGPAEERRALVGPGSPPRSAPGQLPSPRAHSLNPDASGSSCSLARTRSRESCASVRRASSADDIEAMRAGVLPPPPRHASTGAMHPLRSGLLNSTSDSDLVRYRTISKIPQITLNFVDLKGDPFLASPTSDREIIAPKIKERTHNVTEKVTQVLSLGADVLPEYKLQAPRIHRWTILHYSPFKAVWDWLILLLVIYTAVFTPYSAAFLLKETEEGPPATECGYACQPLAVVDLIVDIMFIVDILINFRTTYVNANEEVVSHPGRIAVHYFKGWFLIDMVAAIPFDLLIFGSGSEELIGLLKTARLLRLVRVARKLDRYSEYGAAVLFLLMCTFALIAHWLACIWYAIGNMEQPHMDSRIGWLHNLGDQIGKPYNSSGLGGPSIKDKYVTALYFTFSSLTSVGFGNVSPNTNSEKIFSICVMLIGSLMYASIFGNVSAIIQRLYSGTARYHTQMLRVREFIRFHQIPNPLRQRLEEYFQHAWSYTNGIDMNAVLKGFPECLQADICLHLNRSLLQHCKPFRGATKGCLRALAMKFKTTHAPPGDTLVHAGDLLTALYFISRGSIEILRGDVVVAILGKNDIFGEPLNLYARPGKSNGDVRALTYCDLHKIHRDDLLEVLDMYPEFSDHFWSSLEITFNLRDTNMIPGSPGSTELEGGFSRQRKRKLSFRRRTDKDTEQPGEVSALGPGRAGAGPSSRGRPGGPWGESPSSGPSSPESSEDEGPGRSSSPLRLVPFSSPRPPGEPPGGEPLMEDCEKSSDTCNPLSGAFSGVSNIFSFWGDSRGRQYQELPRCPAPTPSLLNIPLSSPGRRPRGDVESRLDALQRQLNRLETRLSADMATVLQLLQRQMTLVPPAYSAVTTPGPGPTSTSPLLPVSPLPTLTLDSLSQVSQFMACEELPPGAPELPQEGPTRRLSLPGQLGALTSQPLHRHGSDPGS

Compared with `Clc1cccc(Cl)c1CSc1nnc2ccccn12`, `Cc1cc(C)n2c(-c3ccccc3Cl)nnc2n1` is lower in “hERG current change (%, negative = inhibition) at 1uM” value: 9.86% for the first, 5.85% for the second.

First: N#Cc1c(-c2ccccc2)nc(SCc2nc(N)nc(N3CCCCC3)n2)[nH]c1=O
Second: CC1(c2ccccc2)NC(=O)N(CC(=O)Nc2ccccc2N2CCCCC2)C1=O (stereo not shown)
The “hERG current change (%, negative = inhibition) at 1uM” value of the first is higher: 3.75% for the first, -1.54% for the second.

First: COc1ccc(CC2(CO)CCN(CC3=CC[C@H]4C[C@@H]3C4(C)C)CC2)cc1
Second: COc1cccc(CNC(=O)CCC2CCCN(Cc3cc4ccccc4o3)C2)c1 (stereo not shown)
The “hERG current change (%, negative = inhibition) at 1uM” value of the first is higher: -6.02% for the first, -34.3% for the second.

First: CC(=O)c1ccc(Sc2nnnn2-c2ccccc2)c([N+](=O)[O-])c1
Second: Cc1ccc(C(=O)NNS(=O)(=O)c2ccccc2[N+](=O)[O-])cc1
The “hERG current change (%, negative = inhibition) at 1uM” value of the first is higher: 13.7% for the first, 5.9% for the second.

Compared with `O=C(CCN1CCOCC1)NNC(=O)/C(=C/c1ccccc1)NC(=O)c1ccccc1`, `CCN(c1ccccc1)S(=O)(=O)c1cccc(C(=O)NCC(c2cccs2)N2CCOCC2)c1` (stereo not shown) is lower in “hERG current change (%, negative = inhibition) at 1uM” value: 5.72% for the first, 4.25% for the second.

First: Cc1ccc(S(=O)(=O)N/N=C/c2cnn(C)c2C)cc1
Second: Cc1ccc(S(=O)(=O)N2CCN(Cc3ccccc3)CC2)cc1
The “hERG current change (%, negative = inhibition) at 1uM” value of the first is lower: 7.25% for the first, 10% for the second.

Going from `N#Cc1c(C(F)(F)F)cc(-c2ccc(Cl)c(Cl)c2)nc1SCCN1CCOCC1` to `O=C(NCCN1CCOCC1)c1ccc(=O)oc1`, the “hERG current change (%, negative = inhibition) at 1uM” value rises from 11.6% to 15.6%.

Going from `CCCc1[nH]nc2c1C(c1ccc(OC(=O)c3ccco3)cc1)C(C#N)=C(N)O2` (stereo not shown) to `CCOc1ccc(Cc2nnc(SCC(=O)Nc3ccccc3)n(N)c2=O)cc1`, the “hERG current change (%, negative = inhibition) at 1uM” value rises from -28.2% to -1.29%.

First: O=C(NCCC1=CCCCC1)c1ccc(-n2cncn2)c([N+](=O)[O-])c1
Second: CCc1nnc(NS(=O)(=O)c2ccc(NC(=O)c3cccc([N+](=O)[O-])c3)cc2)s1
The “hERG current change (%, negative = inhibition) at 1uM” value of the first is lower: 0.601% for the first, 13.1% for the second.

First: Cn1c(=O)cc(N2CCc3ccccc32)[nH]c1=O
Second: Cc1ccccc1N1C(=O)C2C3C=CC(C2C1=O)N(C)C3=O (stereo not shown)
The “hERG current change (%, negative = inhibition) at 1uM” value of the first is higher: 16.1% for the first, 1.77% for the second.

Going from `CCC(=Nc1ccccc1O)C1=C(O)CC(c2ccccc2)CC1=O` (stereo not shown) to `O=S(=O)(N/N=C1\CC(c2ccccc2)Oc2ccccc21)c1ccccc1` (stereo not shown), the “hERG current change (%, negative = inhibition) at 1uM” value rises from 1.41% to 2.1%.

First: Cc1ccc(OCc2ccccc2Br)c([N+](=O)[O-])n1
Second: O=c1[nH]nc(Cc2ccc([N+](=O)[O-])cc2)c2ccccc12
The “hERG current change (%, negative = inhibition) at 1uM” value of the first is higher: 22.7% for the first, -32.3% for the second.

Going from `Fc1ccc(NC(=S)NCc2ccc3c(c2)OCO3)cc1` to `O=C(c1ccc2c(c1)OCO2)N(c1ccc(F)cc1)C1C=CS(=O)(=O)C1` (stereo not shown), the “hERG current change (%, negative = inhibition) at 1uM” value rises from 6.76% to 7.66%.

Going from `Oc1ccc(N2Cc3ccccc3C2)cc1` to `O=c1c2ccccc2nc(-c2ccco2)n1-c1ccccc1`, the “hERG current change (%, negative = inhibition) at 1uM” value falls from 13.7% to 7.85%.

First: COc1nc(NCCO)nc(Nc2cc(Cl)ccc2OC)n1
Second: COc1ccc(Nc2nc(NCC3CCCO3)c3ccccc3n2)c(OC)c1.Cl (stereo not shown)
The “hERG current change (%, negative = inhibition) at 1uM” value of the first is higher: 12.9% for the first, -48.8% for the second.

Going from `CCn1c(SCC(=O)Nc2sc(C)c(C)c2C#N)nnc1C(C)C` to `C=CCn1c(SCC(=O)NCc2ccco2)nnc1-c1ccc2ccccc2n1`, the “hERG current change (%, negative = inhibition) at 1uM” value falls from 9.07% to 1.95%.

Compared with `O=C(Cc1ccccc1[N+](=O)[O-])NC1CC2CCC1C2` (stereo not shown), `Oc1ccc(C2C[C@H]3CC[C@@H]2C3)cc1O` (stereo partly shown) is lower in “hERG current change (%, negative = inhibition) at 1uM” value: 15.6% for the first, 15.3% for the second.

Compared with `COc1cc(C(=O)N2CCN(c3ccccc3Cl)CC2)ccc1OCC(=O)N1CCOCC1`, `COc1ccc(NC(C)=O)cc1NC(=O)CN1CCN(C(=O)c2ccco2)CC1` is higher in “hERG current change (%, negative = inhibition) at 1uM” value: 8.37% for the first, 11.4% for the second.

First: Cc1nn(-c2ccc(Cl)cc2Cl)c(C)c1C(=O)O
Second: Cc1cc(C(=O)NNc2ccc(Cl)cc2)no1
The “hERG current change (%, negative = inhibition) at 1uM” value of the first is higher: 11.4% for the first, 7.36% for the second.

Compared with `CN(c1ccccc1)S(=O)(=O)c1ccc(Cl)c(C(=O)Nc2ccncc2)c1`, `O=S(=O)(c1ccc(S(=O)(=O)N(Cc2ccccc2)Cc2ccco2)cc1)N1CCCC1` is higher in “hERG current change (%, negative = inhibition) at 1uM” value: -1.16% for the first, -0.0628% for the second.

Compared with `CCS(=O)(=O)N1CCC(C(=O)Oc2ccccc2Br)CC1`, `CCc1ccccc1NC(=O)NC1CC2CCC(C1)N2Cc1ccco1` (stereo not shown) is higher in “hERG current change (%, negative = inhibition) at 1uM” value: 11.6% for the first, 18.3% for the second.

Going from `CC(OC(=O)c1cccs1)C(=O)NCC1CCCO1` (stereo not shown) to `Cc1ccc(S(=O)(=O)NCC(=O)N(CC(=O)NCC2CCCO2)CC2CCCO2)cc1` (stereo not shown), the “hERG current change (%, negative = inhibition) at 1uM” value rises from -4.24% to 11.6%.

Going from `CSCCCN1CCCC(CO)(Cc2ccccc2F)C1` (stereo not shown) to `CC(C)(C)CN1CCN(Cc2c[nH]c3ccccc23)CC1CCO` (stereo not shown), the “hERG current change (%, negative = inhibition) at 1uM” value rises from 4.04% to 10.7%.

Compared with `CCCCCCC(=O)Nc1c2c(nc3ccccc13)N(C)CC2`, `CCCCNC(=O)Nc1ccccc1C(=O)NCCC` is higher in “hERG current change (%, negative = inhibition) at 1uM” value: -30.9% for the first, 14.2% for the second.

Going from `CSc1ccc(Cl)c(C(=O)OCC(=O)NC2CC2)c1` to `O=C(CSc1ncnc2c1cnn2-c1ccccc1)NC1CCCC1`, the “hERG current change (%, negative = inhibition) at 1uM” value falls from 13.1% to 5.33%.

First: FC(F)Oc1ccccc1/C=N/n1cnc2ccccc21
Second: CCOc1ccccc1NC(=O)c1cc(-c2cc(OC)c(OC)c(OC)c2)nc2ccccc12
The “hERG current change (%, negative = inhibition) at 1uM” value of the first is higher: 19% for the first, 15.2% for the second.

First: O=C(Cn1nc(C(=O)O)c2ccccc2c1=O)Nc1cccc(Br)c1
Second: CC1CCN(c2c(NCc3ccc(C(=O)NCc4ccccc4)cc3)c(=O)c2=O)CC1
The “hERG current change (%, negative = inhibition) at 1uM” value of the first is higher: 14.5% for the first, 6.53% for the second.

Going from `CCOC(=O)c1c(C)[nH]c2cc(Br)c(OC)cc12` to `COc1ccc(CC(=O)NNC(=O)COc2ccc(Br)cc2C)cc1OC`, the “hERG current change (%, negative = inhibition) at 1uM” value falls from 9.38% to 6.92%.

Going from `Cc1cc(/C=C2\SC(=Nc3ccc(F)cc3)NC2=O)c(C)n1-c1ccc(S(N)(=O)=O)cc1` to `CC(/C=C/c1ccc(N(C)C)cc1)=N\N=C1\NC(=O)CC(C(=O)Nc2ccccc2)S1` (stereo not shown), the “hERG current change (%, negative = inhibition) at 1uM” value falls from 8.34% to 1.96%.

First: COC(=O)c1ccccc1NC(=O)c1c(O)c2c([nH]c1=O)CCCC2
Second: COCCNC(=O)c1ccccc1NC(=O)c1cc(OC)cc(OC)c1
The “hERG current change (%, negative = inhibition) at 1uM” value of the first is lower: 7.98% for the first, 8.23% for the second.

Going from `COc1ccc(/C(O)=C2/C(=O)C(=O)N(CCCN(C)C)C2c2ccccc2)cc1OC` (stereo not shown) to `COC(=O)c1ccc(CSc2nnc3n(Cc4ccccc4OC)c(=O)c4ccccc4n23)o1`, the “hERG current change (%, negative = inhibition) at 1uM” value rises from -5.52% to 8.64%.

First: Cc1csc2nc(CCNS(=O)(=O)c3ccc4c(c3)OCCO4)cn12
Second: COc1cccc(CNC(=O)CCNS(=O)(=O)c2ccc3c(c2)CC(C)N3C(C)=O)c1 (stereo not shown)
The “hERG current change (%, negative = inhibition) at 1uM” value of the first is lower: 5.26% for the first, 19.4% for the second.

Compared with `COc1cccc2sc3ccc(C#CC4(O)CCCCC4)cc3c(=O)c12`, `COc1cc(/C=C(\C#N)C(=O)N2CCCCC2)ccc1O` is higher in “hERG current change (%, negative = inhibition) at 1uM” value: -0.207% for the first, 12.9% for the second.

Compared with `O=C(Nc1ccc(S(=O)(=O)N2CCCC2)cc1)c1ccc(OCC2CCCO2)cc1` (stereo not shown), `Cc1cccc(S(=O)(=O)N2CN(CC3CCCO3)c3nc4ccccc4nc32)c1` (stereo not shown) is lower in “hERG current change (%, negative = inhibition) at 1uM” value: 8.86% for the first, -4.07% for the second.

Compared with `CC1(C)C2CC[C@]3(C)C(CC=C4[C@@H]5C[C@@](C)(CO)[C@@H](O)C[C@]5(C(=O)O)CC[C@]43C)[C@@]2(C)CC[C@@H]1O` (stereo partly shown), `O=C(CN(CC1CCCO1)C(=O)Cn1nnc(-c2ccc(F)cc2)n1)NC1CCCCC1` (stereo not shown) is lower in “hERG current change (%, negative = inhibition) at 1uM” value: 14.8% for the first, 5.91% for the second.

Going from `Cc1[nH]ccc2c1[nH]c1cc(=O)ccc12` to `Cc1ccc(/C=N/NC(=O)CCCOc2ccc(Cl)cc2Cl)cc1[N+](=O)[O-]`, the “hERG current change (%, negative = inhibition) at 1uM” value rises from -4.88% to 5.79%.

Compared with `COc1ccc(-n2cc(-c3ccc(OC(F)F)cc3)[n+]3c2CCCCC3)cc1.[Br-]`, `COc1ccc2[nH]c(=O)c(CN(CCc3ccccc3)Cc3nnnn3CC3CCCO3)cc2c1` (stereo not shown) is higher in “hERG current change (%, negative = inhibition) at 1uM” value: -52.9% for the first, -16.6% for the second.

Going from `Cc1ccsc1C(=O)C1CCCN(Cc2cnn(C(C)C)c2)C1` (stereo not shown) to `CCn1cc(CN2CCC(n3nccc3NC(=O)C(OC)c3ccccc3)CC2)cn1` (stereo not shown), the “hERG current change (%, negative = inhibition) at 1uM” value rises from -8.27% to 11.7%.

Compared with `Cc1cccc(CSc2nc3c(c(-c4cccs4)c2C#N)CN(C)CC3)c1`, `Cc1cc(C)nc(N/N=C/c2ccc(N3CCOCC3)cc2)n1` is higher in “hERG current change (%, negative = inhibition) at 1uM” value: 5.51% for the first, 8.63% for the second.

Compared with `CC(=O)N1C[C@H](O)C[C@H]1C(=O)O`, `COC(=O)C(=O)/C=C(\O)c1ccc(C)cc1` is higher in “hERG current change (%, negative = inhibition) at 1uM” value: -19% for the first, 4.97% for the second.

First: O=C(c1ccccn1)N1N=C2/C(=C/c3ccccc3)CCCC2C1c1ccccc1 (stereo not shown)
Second: Nc1cccc(C(=O)N/N=C/c2ccsc2)c1
The “hERG current change (%, negative = inhibition) at 1uM” value of the first is lower: 8.55% for the first, 11.3% for the second.

Compared with `Cc1ccc(CCP(=O)(O)CN2CCOCC2)cn1`, `CCCCN(CC)CCCNC(=O)C1CCN(c2ncnc3c2sc2cccc(F)c23)CC1` is lower in “hERG current change (%, negative = inhibition) at 1uM” value: 13.1% for the first, -38.9% for the second.

Compared with `Cc1nn(C(=O)c2c([N+](=O)[O-])cnn2C)c(C)c1Cl`, `CCC(=O)c1ccc(OCC(=O)OCC(=O)c2cc(C)n(C)c2C)cc1` is higher in “hERG current change (%, negative = inhibition) at 1uM” value: 8.09% for the first, 18.6% for the second.

Compared with `N#CCCCSc1nnnn1-c1cccc(Cl)c1`, `C#CCNC(=O)C1=C[C@H](c2ccc(C(F)(F)F)cc2)C[C@H](OCCCCO)O1` is lower in “hERG current change (%, negative = inhibition) at 1uM” value: 12.3% for the first, 6.56% for the second.
